Experimental data reported in publication PMC5681660, “Reduced hepatitis B and D viral entry using clinically applied drugs as novel inhibitors of the bile acid transporter NTCP” (Scientific Reports, 2017).
Counter-ions that a name gives are not always drawn. Like-named read-outs stand apart in the source and are kept apart here.

Legend:
[1] = biological target: T1, human NTCP (Homo sapiens, UniProt Q14973); experiment: Screening taurocholate uptake assay (96-well, [14C]taurocholate, 10 µM drug); settings: for remaining activity at 10 µM: 10 min, read-out: %NTCP activity
T1 sequence (Q14973 1-349): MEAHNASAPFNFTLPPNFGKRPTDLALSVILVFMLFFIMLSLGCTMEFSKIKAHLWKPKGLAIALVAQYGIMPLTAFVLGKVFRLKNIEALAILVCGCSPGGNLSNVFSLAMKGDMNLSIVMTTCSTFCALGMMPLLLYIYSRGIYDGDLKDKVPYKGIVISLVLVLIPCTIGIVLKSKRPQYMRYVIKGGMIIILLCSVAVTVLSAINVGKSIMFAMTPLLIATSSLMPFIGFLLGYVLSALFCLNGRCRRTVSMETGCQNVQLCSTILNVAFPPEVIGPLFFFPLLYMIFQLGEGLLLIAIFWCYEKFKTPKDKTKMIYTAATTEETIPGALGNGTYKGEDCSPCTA

[2] = biological target: T1, human NTCP; experiment: Screening fluorescent competitive Myrcludex B-FITC binding assay (96-well, 10 µM drug)
[3] = screen, 10 µM drug, Myrcludex B-FITC binding
[4] = 0.5 h, read-out: %NTCP binding, Prestwick library screen, 10 µM drug, Myrcludex B-FITC binding
[5] = 0.5 h, read-out: %NTCP binding, screen, 10 µM drug, Myrcludex B-FITC binding
[6] = Prestwick library screen, 10 µM drug, Myrcludex B-FITC binding
[7] = Prestwick library screen, 10 µM drug, [14C]taurocholate uptake

| SMILES | remaining activity at 10 µM [1] | remaining activity at 10 µM ([2]; 0.5 h, read-out: %NTCP binding) | further results |
| --- | --- | --- | --- |
| CCC1=C[C@@H]2CN3CCc4c([nH]c5ccccc45)[C@@](C(=O)OC)(C2)[C@@H]13 [Catharanthine] |  |  | %NTCP activity [1]: 87.0224%; %NTCP binding [2, 3]: 75.083% |
| CC[C@H]1OC(=O)[C@H](C)[C@@H](O[C@H]2C[C@@](C)(OC)[C@@H](O)[C@H](C)O2)[C@H](C)[C@@H](O[C@@H]2O[C@H](C)C[C@H](N(C)C)[C@H]2O)[C@](C)(O)C[C@@H](C)[C@@H]2N[C@@H](COCCOC)O[C@H]([C@H]2C)[C@]1(C)O [Dirithromycin] | 69.7% | 74.8% |  |
| O=c1[nH]c(=O)n([C@H]2C[C@H](O)[C@@H](CO)O2)cc1C(F)(F)F [Trifluridine] | 96.8% | 103% |  |
| CC(=O)[C@H]1CC[C@H]2[C@@H]3CCC4=CC(=O)CC[C@]4(C)[C@H]3CC[C@]12C [Progesterone] | 61.1% | 59.8% |  |
| CCOC(=O)C1=C[C@]2(CC)CCCN3CCc4c(n1c1ccccc41)[C@@H]32 [Vinpocetine] | 70.9% | 72.2% |  |
| OC(CCN1CCCC1)(c1ccccc1)C1CCCCC1 (centres unmarked) [Procyclidine hydrochloride] | 91.4% | 101% |  |
| CCCCC(=O)O[C@H]1CC[C@H]2[C@@H]3CCc4cc(O)ccc4[C@H]3CC[C@]12C [Estradiol Valerate] | 117% | 100% |  |
| CC(CN1c2ccccc2Sc2ccccc21)N(C)C (centres unmarked) [Promethazine hydrochloride] | 62.7% | 99.4% |  |
| CCCCC1C(=O)N(c2ccccc2)N(c2ccc(O)cc2)C1=O (centres unmarked) [Oxyphenbutazone] | 106% | 90.4% |  |
| NS(=O)(=O)c1cc2c(cc1Cl)NC(CC1CCCC1)NS2(=O)=O (centres unmarked) [Cyclopenthiazide] | 79.4% | 119% |  |
| Cc1cccc(C)c1N=C1NCCCS1 [Xylazine] | 114% | 86.6% |  |
| CN(C(=O)CN(CCO)CC(=O)N(C)C(C)(C)Cc1ccccc1)C(C)(C)Cc1ccccc1 [Oxethazaine] | 111% | 100% |  |
| CCN1CCN(c2cc3c(cc2F)c(=O)c(C(=O)O)cn3C2CC2)CC1 [Enrofloxacin] | 87.1% | 88.8% |  |
| O=C(NCNC(=O)NC1C(=O)NC(=O)N1CO)NC1C(=O)NC(=O)N1CO (centres unmarked) [Imidurea] | 82.5% |  | remaining activity at 10 µM [2, 4]: 101% |
| CN(C)CCC(c1ccccc1)c1ccccn1 (centres unmarked) [Pheniramine maleate] | 128% | 107% |  |
| CCOC1O[C@H]([C@@H](COCc2ccccc2)OCc2ccccc2)[C@H](OCc2ccccc2)[C@H]1O (some centres unmarked) [Tribenoside] | 21.9% | 79.1% |  |
| COc1ccc(C(=O)c2ccccc2)c(O)c1 [Oxybenzone] | 79% | 99.7% |  |
| CCN1CC(CCN2CCOCC2)C(c2ccccc2)(c2ccccc2)C1=O.Cl (centres unmarked) [Doxapram hydrochloride] |  |  | %NTCP activity ([1]; screen, 10 µM drug, [14C]taurocholate uptake): 88.896%; %NTCP binding [2, 3]: 83.6716% |
| C=CC[N@@+]12CC[C@@]34c5ccccc5N5/C=C6/[C@H]7C[C@H]8[C@@]9(CC[N@@+]8(CC=C)C/C7=C/CO)c7ccccc7N(/C=C(/[C@@H](C[C@@H]31)/C(=C\CO)C2)[C@H]54)[C@@H]69.[Cl-].[Cl-] [Alcuronium chloride] |  |  | %NTCP activity [1]: 111.061%; %NTCP binding [2, 3]: 80.4183% |
| CC(N/C(=N\C#N)Nc1ccncc1)C(C)(C)C (centres unmarked) [Pinacidil] | 33.5% | 59.9% |  |
| Cn1c(=O)c2[nH]cnc2n(C)c1=O [Theophylline monohydrate] | 87.9% |  | remaining activity at 10 µM [2, 5]: 76.7% |
| COc1cc(N)c(Cl)cc1C(=O)NC1CCN(Cc2ccccc2)CC1 [Clebopride maleate] | 74% | 52.3% |  |
| O=c1[nH]cnc2c1ncn2[C@H]1CC[C@@H](CO)O1 [Didanosine] | 98.1% | 93.9% |  |
| CCCCC[C@H](O)/C=C/[C@H]1[C@H](O)CC(=O)[C@@H]1CCCCCCC(=O)O [Alprostadil] | 106% | 79.5% |  |
| O=C(O)c1ccccc1OP(=O)(O)O [Fosfosal] | 91.4% | 104% |  |
| CCN(CC)C(=O)/C(C#N)=C/c1cc(O)c(O)c([N+](=O)[O-])c1 [Entacapone] | 116% | 76.3% |  |

| SMILES | remaining activity at 10 µM [1] | remaining activity at 10 µM ([2]; 0.5 h, read-out: %NTCP binding) | further results |
| --- | --- | --- | --- |
| CC(C)(C)NCC(O)COc1cccc2c1CC(O)C(O)C2 (centres unmarked) [Nadolol] | 93.6% | 113% |  |
| C=CCSCC1Nc2cc(Cl)c(S(N)(=O)=O)cc2S(=O)(=O)N1 (centres unmarked) [Althiazide] | 101% | 103% |  |
| CC(=O)N1CCN(c2ccc(OCC3COC(Cn4ccnc4)(c4ccc(Cl)cc4Cl)O3)cc2)CC1 (centres unmarked) [Ketoconazole] | 66.4% |  | remaining activity at 10 µM [2, 5]: 32.8% |
| CCCCc1ccc2[nH]c(NC(=O)OC)nc2c1 [Parbendazole] | 103% |  | remaining activity at 10 µM [2, 4]: 80.9% |
| CN(C)CCC=C1c2ccccc2CCc2ccccc21.Cl [Amitryptiline hydrochloride] |  |  | %NTCP activity [1]: 157.363%; %NTCP binding ([2]; Prestwick library screen, Myrcludex B-FITC binding, 10 µM drug): 108.742% |
| O=c1oc2ccccc2c(O)c1Cc1c(O)c2ccccc2oc1=O [Dicumarol] | 41.6% | 120% |  |
| CCN(CC)C(=O)C1(c2ccccc2)CC1CN.Cl (centres unmarked) [Milnacipran hydrochloride] |  |  | %NTCP activity [1]: 134.458%; %NTCP binding [2, 6]: 57.458% |
| NS(=O)(=O)c1cc2c(cc1Cl)N=C(CSCc1ccccc1)NS2(=O)=O [Benzthiazide] | 92.9% | 120% |  |
| CCC1(C)CC(=O)NC1=O (centres unmarked) [Ethosuximide] | 103% | 74.8% |  |
| CC(=O)OCC(=O)[C@@]1(O)CC[C@H]2[C@@H]3CCC4=CC(=O)C=C[C@]4(C)[C@@]3(F)[C@@H](O)C[C@@]21C [Isoflupredone acetate] | 108% | 111% |  |
| CN(C)CCN(Cc1ccccc1)c1ccccn1 [Tripelennamine hydrochloride] | 88.6% | 81.3% |  |
| COc1cnc(NS(=O)(=O)c2ccc(N)cc2)nc1 [Sulfameter] | 97.5% | 92.9% |  |
| CN1CCN(CCCN2c3ccccc3Sc3ccc(S(=O)(=O)N(C)C)cc32)CC1.CS(=O)(=O)O.CS(=O)(=O)O [Thioproperazine dimesylate] |  |  | %NTCP activity [1, 7]: 107.536%; %NTCP binding [2, 6]: 93.2041% |
| CC12CC3CC(C)(C1)CC(N)(C3)C2 [Memantine Hydrochloride] | 116% | 93.9% |  |
| O=C(O)c1cc(=O)c2c(OCC(O)COc3cccc4oc(C(=O)O)cc(=O)c34)cccc2o1 [Cromolyn disodium salt] | 79.2% | 113% |  |
| NCC[C@H](O)C(=O)N[C@@H]1C[C@H](N)[C@@H](O[C@H]2O[C@H](CN)[C@@H](O)[C@H](O)[C@H]2O)[C@H](O)[C@H]1O[C@H]1O[C@H](CO)[C@@H](O)[C@H](N)[C@H]1O [Amikacin hydrate] |  |  | %NTCP activity [1, 7]: 116.214%; %NTCP binding [2, 6]: 71.4906% |
| C#CCN(C)CCCOc1ccc(Cl)cc1Cl [Clorgyline hydrochloride] | 62.4% | 66.1% |  |
| NS(=O)(=O)Cc1noc2ccccc12 [Zonisamide] | 124% | 81.3% |  |
| CN(C)CC/C=C1\c2ccccc2CSc2ccccc21 [Dosulepin hydrochloride] | 54.9% | 78.6% |  |
| CNC(=O)c1c(I)c(C(=O)NCC(=O)Nc2c(I)c(C(=O)O)c(I)c(C(=O)NCCO)c2I)c(I)c(N(C)C(C)=O)c1I [Ioxaglic acid] | 55.5% | 122% |  |
| CN(Cc1cnc2nc(N)nc(N)c2n1)c1ccc(C(=O)N[C@@H](CCC(=O)O)C(=O)O)cc1 [Methotrexate] | 43.2% | 85.8% |  |
| N#Cc1ccc(C(c2ccc(C#N)cc2)n2cncn2)cc1 [Letrozole] | 115% | 83.6% |  |
| CCOC(=O)OC(C)OC(=O)[C@@H]1N2C(=O)[C@@H](NC(=O)[C@H](N)c3ccccc3)[C@H]2SC1(C)C (some centres unmarked) [Bacampicillin hydrochloride] | 53.2% | 58% |  |
| Cc1[nH]c(=O)c(C#N)cc1-c1ccncc1 [Milrinone] | 82.5% | 106% |  |
| CCN1CCCC(OC(=O)C(c2ccccc2)c2ccccc2)C1 (centres unmarked) [Piperidolate hydrochloride] | 107% | 62% |  |
| CC(N)C12CC3CC(CC(C3)C1)C2 (centres unmarked) [Rimantadine Hydrochloride] | 114% | 87.6% |  |
